Here are results for 89 molecules from publication PMC4336329 (PLoS ONE, 2015).

SMILES strings stand for the structures. The campaign covered roughly 310,000 compounds. About 2,200 (0.71%) showed an effect of 50% or more. Effects have a minus sign here. The list shows a part of the results.

The target in this assay is human ether-à-go-go-related gene (hERG) potassium channel (human, UniProt Q12809). Description: primary screen, population patch clamp on CHO cells stably expressing hERG.
human ether-à-go-go-related gene (hERG) potassium channel, sequence (Q12809 whole entry, looked up): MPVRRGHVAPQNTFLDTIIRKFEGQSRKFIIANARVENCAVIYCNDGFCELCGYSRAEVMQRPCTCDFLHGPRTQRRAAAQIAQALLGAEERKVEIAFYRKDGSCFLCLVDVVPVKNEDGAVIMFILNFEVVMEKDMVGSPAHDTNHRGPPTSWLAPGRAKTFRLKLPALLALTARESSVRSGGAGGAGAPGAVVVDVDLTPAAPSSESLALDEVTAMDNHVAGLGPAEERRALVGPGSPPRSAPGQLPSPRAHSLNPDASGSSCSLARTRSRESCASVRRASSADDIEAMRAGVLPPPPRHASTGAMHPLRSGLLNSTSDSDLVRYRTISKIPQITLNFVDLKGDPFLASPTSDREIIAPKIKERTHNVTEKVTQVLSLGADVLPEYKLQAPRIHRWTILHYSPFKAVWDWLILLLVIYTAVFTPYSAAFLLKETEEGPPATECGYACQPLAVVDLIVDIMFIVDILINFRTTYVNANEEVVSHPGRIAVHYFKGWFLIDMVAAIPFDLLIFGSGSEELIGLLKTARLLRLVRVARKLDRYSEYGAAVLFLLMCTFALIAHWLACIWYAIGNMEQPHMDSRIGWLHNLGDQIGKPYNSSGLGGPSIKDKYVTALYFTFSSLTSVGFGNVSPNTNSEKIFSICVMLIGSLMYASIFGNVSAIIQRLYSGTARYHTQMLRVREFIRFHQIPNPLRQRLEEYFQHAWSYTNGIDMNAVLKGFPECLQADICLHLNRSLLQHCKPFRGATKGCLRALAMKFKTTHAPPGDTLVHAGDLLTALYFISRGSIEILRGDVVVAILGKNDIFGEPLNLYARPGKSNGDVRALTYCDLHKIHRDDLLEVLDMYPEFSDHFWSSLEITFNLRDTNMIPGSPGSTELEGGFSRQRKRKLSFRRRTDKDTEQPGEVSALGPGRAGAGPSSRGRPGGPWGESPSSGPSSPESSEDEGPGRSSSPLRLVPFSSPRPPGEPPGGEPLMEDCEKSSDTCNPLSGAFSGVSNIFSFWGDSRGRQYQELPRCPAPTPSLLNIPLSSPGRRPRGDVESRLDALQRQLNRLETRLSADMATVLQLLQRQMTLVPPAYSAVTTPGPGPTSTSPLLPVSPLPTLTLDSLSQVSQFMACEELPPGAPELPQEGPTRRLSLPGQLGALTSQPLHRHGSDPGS
Regarding `O=[N+]([O-])c1ccc(CSc2nc3ccccc3o2)cc1`, the “hERG current change (%, negative = inhibition) at 1uM” value turned out to be 11.2%. The figure for `COC(=O)c1ccccc1NC(=O)c1ccco1` is 3.36%; for `CC(C)NC(=O)NNC(=O)c1cc(COc2cc(Cl)cc(Cl)c2)on1` it is 7.72%; for `COc1ccc(-n2c(SCC(=O)Nc3nccs3)nc3c(c2=O)SCC3)cc1` it is 9.88%. `COc1ccc(N(C(=O)COc2ccc(C)cc2)S(=O)(=O)c2ccc(C)cc2)cc1`: the “hERG current change (%, negative = inhibition) at 1uM” value is 1%.

For the molecule `OCC[C@@H]1C[C@H](O)[C@@H](O)[C@@]2(CCCc3ccccc3O2)O1`, the “hERG current change (%, negative = inhibition) at 1uM” value was 19.3%. The figure for `CC(C)N1CCC(=NNC(=O)c2cccs2)CC1` is 24.2%. Take `Cc1ccc(SCC(=O)N(C)C2CCS(=O)(=O)C2)cc1` (centres unmarked): the “hERG current change (%, negative = inhibition) at 1uM” value stood at 8.94%. The figure for `CC1CC(C)CN(C(=O)CSc2nnc(-c3ccc(Cl)cc3)o2)C1` (centres unmarked) is 3.62%; for `O=S(=O)(Nc1ccc(S(=O)(=O)N2CCCC2)cc1)c1ccc(F)cc1` it is 5.47%. The figure for `Cc1cccc(-n2c(=O)[nH]c3c(C(N)=O)nc(C(C)C)nc32)c1` is 4.1%; for `Cc1cc(NS(=O)(=O)c2ccc(N)cc2)no1` it is 13.5%.

On to `CCC(=O)NC(Cc1ccccc1)c1ccc2c(c1)OCCCO2` (centres unmarked), for which the “hERG current change (%, negative = inhibition) at 1uM” value amounted to 10.7%. On to `O=C(O)c1ccc(NC(=S)NC(=O)c2cccc(COc3ccccc3)c2)cc1`, for which the “hERG current change (%, negative = inhibition) at 1uM” value is given as 19.7%. With `Cl.OC(CNC1CCCC1)COc1ccc(Cl)cc1` (centres unmarked), the “hERG current change (%, negative = inhibition) at 1uM” value is 2.27%.

Consider `CCOC(=O)c1cn(CC(=O)Nc2cccc(Cl)c2)nn1`, for which the “hERG current change (%, negative = inhibition) at 1uM” value is on record as 1.17%. As for `O=C(Nc1cnc2ccccc2c1)c1cccc(-n2cnnn2)c1`, the “hERG current change (%, negative = inhibition) at 1uM” value is listed as 11.7%.

For `O=C(NC(=S)Nc1ccc(CN2CCOCC2)cc1)c1ccc([N+](=O)[O-])cc1`, the “hERG current change (%, negative = inhibition) at 1uM” value was 13%. Under `Oc1ccc2ccccc2c1/C=N/c1nccs1` stands 15.2%.

With `CC(Sc1nnc(CNc2cccc3ccccc23)n1-c1ccccc1)C(=O)N/N=C/c1ccco1` (centres unmarked), the “hERG current change (%, negative = inhibition) at 1uM” value came to 2.27%. Regarding `Cc1ccc(C)c(N2CCN(S(=O)(=O)c3c(C)noc3/C=C/N(C)C)CC2)c1`, the “hERG current change (%, negative = inhibition) at 1uM” value turned out to be 0.956%.

Take `COc1ccc(C2C3C=CCC(c4cccc(-c5ccc(C)cc5)c4)C3C(=O)N2Cc2ccccc2)cc1Cl` (centres unmarked): the “hERG current change (%, negative = inhibition) at 1uM” value is given as 8.74%. Under `Cc1ccc(S(=O)(=O)NCCS(=O)(=O)N2CCN(c3ccc(F)cc3)CC2)cc1` stands -3.7%. The figure for `Cn1nccc1C(=O)Nc1ccc2c(c1)OCO2` is 6.11%. Under `CCCCSc1nnc(-c2ccc(NC(=O)CC)cc2)n1C` stands 14%; under `CC1=C(C(=O)Nc2ccccc2C)C(c2cccnc2)n2nc(CCCO)nc2N1` (centres unmarked), 1.7%; under `Cc1cc(C=O)c(C)n1CC1CCCO1` (centres unmarked), 14.1%.

Take `COc1ccc(NC(=O)c2oc3ccccc3c2NC(=O)C(C)(C)C)cc1`: the “hERG current change (%, negative = inhibition) at 1uM” value was 10%. The figure for `O=C(O)c1oc2ccccc2c1CSc1ccc(Cl)cc1` is 15.6%. Turning to `O=C(CSc1nc2ccccc2[nH]1)c1ccccc1F`, the “hERG current change (%, negative = inhibition) at 1uM” value was 15.2%.

As for `O=C(NCCO)/C(=C\c1ccc2c(c1)OCO2)NC(=O)c1ccc(Br)cc1`, the “hERG current change (%, negative = inhibition) at 1uM” value is -26.9%. Turning to `Cc1ccc(NC(=O)/C(=C\c2cccs2)NC(=O)c2ccccc2)cc1`, the “hERG current change (%, negative = inhibition) at 1uM” value is recorded as -1.02%. The figure for `COc1ccc(S(=O)(=O)N2CCCCCC2)cc1C(=O)N1CCN(c2ccccc2C)CC1` is 2.59%; for `CN1CCN(c2ccc(CNS(=O)(=O)c3ccc(Cl)cc3)cc2)CC1` it is 12.8%. The figure for `COCCCNC(=O)CSc1nc2cc3c(cc2c(=O)n1CCCC(=O)NCc1ccc(OC)cc1)OCO3` is 10.3%. `Cc1noc(C)c1CSc1nnc2n(-c3ccccc3)c(=O)c3ccccc3n12`: the “hERG current change (%, negative = inhibition) at 1uM” value is -11.5%. The figure for `Cc1cc(Oc2ccc(C(F)(F)F)cc2[N+](=O)[O-])c2c3c(c(=O)oc2c1)CCC3` is 14%; for `COC(=O)c1ccc2c(c1)N(Cc1nc(-c3ccc(Cl)cc3)oc1C)C(=O)C1CCCN21` (centres unmarked) it is 9.35%; for `C/C(=N\NC(=O)CN1CCN(c2ccc(F)cc2)CC1)c1ccco1` it is 1.44%. Under `CC(=O)Nc1ccc(N(C(=O)c2ccco2)C(C(=O)NC2CCCCC2)c2ccccc2)cc1` (centres unmarked) stands 9.39%; under `Cc1ccc(S(=O)(=O)N2CCC(C(=O)N3CCC[C@H]3C(=O)NC3CCS(=O)(=O)C3)CC2)cc1` (some centres unmarked), 0.521%; under `CCN(C(=O)COc1ccc(C(=O)c2ccccc2)cc1)c1ccccc1`, 6.71%.

With `O=C(c1ccccc1)C(Sc1ncn[nH]1)c1ccccc1` (centres unmarked), the “hERG current change (%, negative = inhibition) at 1uM” value is recorded as 3.49%. The figure for `COC(=O)/C(=C1/Oc2ccc(C(C)(C)C)cc2S1)C(F)(F)F` is 12.1%; for `Cc1ccccc1NC(=S)NCC(c1cccnc1)N(C)C` (centres unmarked) it is 10.9%. Under `COc1ccc(Cl)cc1NC(=O)c1noc(C)c1[N+](=O)[O-]` stands 6.27%; under `CCOc1cc(C)c(S(=O)(=O)NC2CC(C)(C)NC(C)(C)C2)cc1C`, 7.72%.

Take `CCOC(=O)C1(c2ccccc2)CCN(Cc2cccc(C(=O)O)c2)CC1.Cl`: the “hERG current change (%, negative = inhibition) at 1uM” value turned out to be 2.99%. Under `CC(=O)Nc1ccc(C(=O)OCc2ccc(Cl)c(Cl)c2)cc1` stands 12.2%. The figure for `CC(=O)Nc1c(Nc2ccccc2)c2ccccc2oc1=O` is 13.6%; for `Cc1sc(NC(=O)C2CC=CCC2C(=O)O)c(C(=O)OC(C)C)c1C` (centres unmarked) it is 12.9%. Under `COc1ccccc1N(CN1C(=O)c2ccccc2C1=O)C(=O)c1cccc(C)c1` stands 12.4%; under `Cc1ccc(C(NC(=O)N2CCN(C)CC2)C(Cl)Cl)cc1F` (centres unmarked), 5.67%; under `COc1cccc(NC(=O)NC2(C(=O)N3CCC(O)CC3)CCCCC2)c1`, 15.5%.

With `CC(C)(C)C(=O)Nc1c2c(nc3c1CCC3)CCCC2`, the “hERG current change (%, negative = inhibition) at 1uM” value is 0.315%. Under `Cc1ccc(N(C(=O)C2CCCC2)C2C=CS(=O)(=O)C2)cc1` (centres unmarked) stands 8.1%; under `Cc1cc(C)c2c(=O)n(CC(=O)Nc3ccc(Cl)cc3)sc2n1`, 11.9%; under `Cc1ccn(S(=O)(=O)c2ccc(N3CCCC3=O)cc2)n1`, 15.7%. The figure for `O=C(N/N=C\C=C\c1ccco1)c1cc(-c2ccc3ccccc3c2)n[nH]1` is 1.18%. Under `COc1ccc(OC)c(NC(=O)CSc2nc(N)c(-c3ccccc3)c(=O)[nH]2)c1` stands 13.6%. Turning to `O=C(Oc1nsnc1N1CCOCC1)N1CCOCC1`, the “hERG current change (%, negative = inhibition) at 1uM” value is given as 14.1%.

In the case of `CCN(CC)CCNCC(=O)Nc1ccc(Cl)cc1C(=O)c1ccccc1.O=C(O)C(=O)O`, the “hERG current change (%, negative = inhibition) at 1uM” value is on record as -84.2%.

In the case of `COCCN(C(=O)Cc1cccs1)C(C(=O)NCc1ccc(OC)cc1)c1ccc(C(C)C)cc1` (centres unmarked), the “hERG current change (%, negative = inhibition) at 1uM” value was found to be 9.05%. Under `O=C(c1ccc(S(=O)(=O)N2CCOCC2)cc1)N1CCc2ccccc21` stands 17.4%; under `COc1ccccc1NC(=O)C(=O)NCCCN1CCCC1=O`, 0.283%; under `COc1ccc(N2CCN(C(=O)CN3CCN(c4nc(-c5ccc(F)cc5)cs4)CC3)CC2)cc1`, 7.78%. The figure for `COc1ccc2oc(=O)cc(CN3CCN(Cc4ccc(OC)c(OC)c4OC)CC3)c2c1` is -2.05%. The figure for `O=C(Nc1ccc(Cl)cc1)NC1CCCCC1` is 12.2%; for `CC(=O)Nc1ccc(Oc2cnc3ccccc3n2)cc1` it is 0.103%.

With `Nc1nc(Nc2ccccc2)nc(C(F)(F)F)n1`, the “hERG current change (%, negative = inhibition) at 1uM” value was determined as 14.7%. Under `CC1(C)CC(=O)c2cnc(NC(=O)C3CCCC3)nc2C1` stands 3.16%; under `CC(C)(Oc1ccc(Cl)cc1)C(=O)OCC(=O)NCCc1ccccc1`, 5.4%; under `O=S(=O)(Nc1ccncc1)c1cc(Cl)c(Cl)cc1Cl`, 7%. Under `CCN1CCN(C(c2cccs2)C(C)NC(=O)NC2CCCCC2)CC1` (centres unmarked) stands -2.02%; under `COC(=O)[C@H]1CCCN1C(=O)Nc1cccc(Oc2c(F)c(F)c(F)c(F)c2F)c1`, -9.06%.

Regarding `Cc1cc(NCc2ccccn2)nc2ccccc12`, the “hERG current change (%, negative = inhibition) at 1uM” value is 0.148%. With `COc1ccc(C2C(C#N)=C(N)Oc3c2oc(CO)cc3=O)c(OC)c1OC` (centres unmarked), the “hERG current change (%, negative = inhibition) at 1uM” value was 10.2%.

Turning to `O=C(CSc1nnc(NC(=O)C2CC2)s1)Nc1ccc(F)cc1F`, the “hERG current change (%, negative = inhibition) at 1uM” value is given as -2.53%.

For `C=CCN(CC=C)C(=O)Nc1cc(Cl)ccc1OC`, the “hERG current change (%, negative = inhibition) at 1uM” value is listed as 4.63%. The figure for `CCN1CCC[C@H]1CNC(=O)c1c(O)c(Cl)cc(Cl)c1OC.O=C(O)C(O)C(O)C(=O)O` is -3.09%; for `COc1cccc(/C=N/NC(=O)CCn2nnc3ccccc32)c1` it is 8.65%.

Turning to `Cc1ccc(S(=O)(=O)N(CC(=O)NC2CC2)c2ccc(C)c(Cl)c2)cc1`, the “hERG current change (%, negative = inhibition) at 1uM” value was determined as 9.95%.

Take `CC(C)(C)C(=O)Nc1ccccc1C(=O)NCc1ccco1`: the “hERG current change (%, negative = inhibition) at 1uM” value is reported as 2.64%. Under `CC1(C)CC2CN(C(=O)Cc3ccccc3)C(C)(C2)C1` (centres unmarked) stands 9.25%; under `COP(=O)(OC)C1(Nc2ccc(C)cc2)CCCCC1`, 5.74%; under `CCCOc1ccc(N2C(=O)CC(N(CCC)C(=O)CCC(=O)O)C2=O)cc1` (centres unmarked), 10.2%. Under `CCOc1cc(CNCCCN2CCOCC2)cc(Cl)c1OCC(=O)NC(C)(C)C.Cl` stands 9.72%.

As to `COC(=O)c1cn(C)c2ccc(S(=O)(=O)N3CCOCC3)cc2c1=O`, the “hERG current change (%, negative = inhibition) at 1uM” value came out at 11.9%. The figure for `CC(=O)c1cccc(NC(=O)c2ccc3ccccc3c2)c1` is 12.1%.
